In PubChem BioAssay AID686978 (National Center for Advancing Translational Sciences (NCATS), 2013):
The campaign covered roughly 420,000 compounds. About 64,000 (15%) were called active. The inconclusive results got no clear call from the source; some entries with a clear call stand among them for comparison. Calls follow the shape of the dose curve; as a rule, active = well fitted inhibition curve with a large enough effect; inconclusive = small, poorly fitted or top-dose-only effect; inactive = flat fitted curve, though single readings scatter. Potencies of inconclusive entries are left out as doubtful fits.

assay: qHTS for Inhibitors of human tyrosyl-DNA phosphodiesterase 1 (TDP1): qHTS in cells in absence of CPT; settings: DT40 Tdp1-/- hTDP1 cells, no CPT, ATP luminescence, 48 h; activity change, negative = growth inhibition: at 46.2 µM (top of the series) unless noted; also: nearly all actives have a fitted effect of over 55% in size
How it was run: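 Camptothecin absent (DMSO only). Human TDP1-complemented DT40 knockout cells, 400 cells/well, 37 °C for minimum 48 hr; ATP measured via CellTiter-Glo, 30 min dark incubation, luminescence.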
% is scaled to controls: 0 for no effect and ±100 for the full control effect; potency is read from the fitted curve at half-maximal effect; tags tell the direction and shape of the fitted curve.

Row | Structure (SMILES) | activity change, negative = growth inhibition | Potency
1 | Cc1ccc(CN2CCN(Cc3cnc(C)s3)CC2CCO)cc1 (stereo not drawn) | inactive: -13.3% | 
2 | COc1ccccc1N1CCN(S(=O)(=O)c2c(C)sc3ncn(CC(=O)Nc4ccc(C(F)(F)F)cc4)c(=O)c23)CC1 |  | inconclusive [inhibitor, single point]
3 | Cc1ccc(S(=O)(=O)CCC(=O)OCC(=O)N(Cc2ccccc2)C(C)C)cc1 | inactive: -2.49% | 
4 | Cc1ccc(NC(=O)/C(=C\c2cccnc2)NC(=O)c2ccccc2)cc1 | inactive: 21.6% | 
5 | COC(=O)C1C=CC(OC2OC(COC(C)=O)C(OC(C)=O)C(OC(C)=O)C2OC(C)=O)n2c(=O)n(-c3ccccc3)c(=O)n21 (stereo not drawn) |  | active: 0.82 µM
6 | CCOC(=O)N1CCN(Cc2nc3c(c(=O)n(C)c(=O)n3C)n2CCC(C)C)CC1 | inconclusive: -32.5% [inhibitor] | 
7 | O=C(CCOc1ccccc1)NCC(c1ccco1)N1CCCCC1 (stereo not drawn) | inconclusive: -33.4% [inhibitor] | 
8 | C[C@H](NC(=O)COc1ccc(Cl)cc1)C(=O)N1CCC2(CC1)NCCc1[nH]cnc12 | inactive: -0.476% | 
9 | O=C(CSc1ncccn1)N/N=C/c1ccccc1[N+](=O)[O-] | inactive: -13.2% | 
10 | Cc1c(-c2ccccc2)c(-c2ccc(OCCN(C)C)cc2)n2ccccc12 |  | inconclusive [inhibitor, single point]
11 | COc1ccc(CCC(=O)NCCOc2ccccc2Cl)cc1 |  | inconclusive [inhibitor, single point]
12 | COc1ccc(NC(=S)NC(=O)C2CCC2)cc1 | inactive: -3.88% | 
13 | CN(CCc1ccccc1)C(=O)c1ccc(NC(=O)Cc2ccc(NC(=O)C3CCN(C(=O)c4ccccc4)CC3)cc2)cc1 |  | inconclusive [inhibitor, single point]
14 | COc1ccc(NC(=O)COc2ccc(CNCCCN3CCOCC3)cc2OC)cc1 | inactive: -6.27% | 
15 | COCCNC(=O)Cc1c(C)c2cc3c(cc2oc1=O)OC(C)(C)CC3 |  | inconclusive [inhibitor, single point]
16 | CCN1CCN(C(=O)C2CCN(Cc3nc(-c4cccc(Cl)c4)oc3C)CC2)CC1 |  | active: 16.4 µM
17 | C[C@@H]1C=C(C(=O)NCc2nc3ccccc3[nH]2)O[C@H](OCc2ccc(CO)cc2)C1 |  | inconclusive [inhibitor, partial curve]
18 | COc1ccc(CCNC(=O)CN(c2cc(C(F)(F)F)ccc2Cl)S(C)(=O)=O)cc1 |  | inconclusive [inhibitor, single point]
19 | CC(C)NC(=O)N(C)C[C@@H]1OCCCC[C@@H](C)Oc2ccc(NC(=O)Nc3ccc(F)cc3)cc2C(=O)N([C@H](C)CO)C[C@@H]1C | inactive: -2.41% | 
20 | COC(=O)c1sc(NC(=O)c2cc3nc(-c4ccc(Br)cc4)cc(C(F)(F)F)n3n2)c(C(=O)OC)c1C |  | inconclusive [inhibitor, single point]
21 | O=C(O)Cc1sc(Nc2ccccc2Cl)nc1-c1ccccc1 | inactive: -16% | 
22 | CCCCN(C(=O)CSc1cc(C)c2ccc(OC)cc2n1)c1c(N)n(Cc2ccccc2)c(=O)[nH]c1=O |  | inconclusive [inhibitor, partial curve, poor fit]
23 | COc1ccccc1C(C)NC(=O)CCC(=O)N1CCN(S(=O)(=O)c2ccc(Cl)cc2)CC1 (stereo not drawn) |  | inconclusive [inhibitor, single point]

Row | Structure (SMILES) | activity change, negative = growth inhibition | Potency
24 | O=C(Cn1ccc2cc(S(=O)(=O)N3CCCCC3)ccc21)NCCc1ccc(Cl)cc1 |  | inconclusive [inhibitor, single point]
25 | CC1CCCN(CC(=O)Nc2ccc(S(=O)(=O)N3CCCCCC3)cc2)C1 (stereo not drawn) |  | inconclusive [inhibitor, partial curve, poor fit]
26 | COC(=O)C1=CN(c2ccc(C)cc2)C(N)=C(C#N)C1c1ccc(OC)cc1 (stereo not drawn) |  | inconclusive [inhibitor, single point]
27 | COc1ccccc1-c1nnc(SCC(=O)NC2CCCCC2)o1 |  | inconclusive [inhibitor, single point]
28 | O=C(CN1CCN(c2ccccc2O)CC1)NC(=O)NC1CCCC1 |  | inconclusive [inhibitor, single point]
29 | COC(=O)C1=CN(c2ccc(F)cc2)C=C(C(=O)OC)C1c1ccc(O)cc1 |  | active: 16.4 µM
30 | CC(C)CCN1C(=O)C2(OCCCO2)c2cc(Cl)ccc21 | inactive: -26% | 
31 | Cc1ccc2oc(-c3cccc(NC(=O)COc4ccc(Cl)cc4)c3C)nc2c1 | inactive: -18.7% | 
32 | COc1ccc(NC(=S)N(CCC(C)C)C2CCN(C(C)C)CC2)cc1Cl |  | inconclusive [inhibitor, partial curve, poor fit]
33 | COc1ccccc1N1CCN(S(=O)(=O)CCNC(=O)CCc2ccccc2)CC1 |  | active: 16.4 µM
34 | Cc1cccc(C)c1NC(=O)CSc1nc(C)c(CC(=O)c2ccc(Br)cc2)c(C)c1C#N |  | inconclusive [inhibitor, partial curve]
35 | COCCCNC(=O)c1ccc(-c2nc3ccccc3nc2-c2ccccc2)cc1 |  | active: 23.1 µM
36 | CCOc1ccc(OCCC(=O)N2CCN(S(=O)(=O)c3cccc(F)c3)CC2)cc1 |  | inconclusive [inhibitor, single point]
37 | COC(=O)c1ccc(S(=O)(=O)NCc2ccccn2)n1C | inactive: -11.5% | 
38 | CN1CCN(NC(=O)C2CC2)CC1 | inactive: 1.2% | 
39 | CCOC(=O)c1cc(S(=O)(=O)N2CCN(c3cc(C)ccc3C)CC2)[nH]n1 |  | inconclusive [inhibitor, single point]
40 | COc1cccc(N/C(SCc2ccccc2Cl)=C(/C#N)C(=O)NCc2cccs2)c1 |  | inconclusive [inhibitor, single point]
41 | CC(C)(C)Cc1c(-c2ccccc2)nc2ccc(Cl)cn12 |  | active: 23.1 µM
42 | COc1cccc(-c2noc(C3CCCN(C(=O)c4cccc(F)c4)C3)n2)c1 (stereo not drawn) |  | inconclusive [inhibitor, single point]
43 | COc1ccc(Cl)cc1NC(=O)CSc1nnc(Cn2c(=O)sc3ccccc32)n1C | inconclusive: -31.8% [inhibitor] | 
44 | CCOC(=O)N1CCC(NC(=O)Cn2ncc3c2-c2cc(C)ccc2OC3)CC1 |  | inconclusive [inhibitor, single point]
45 | O=C(c1cncc(Br)c1)N1CCCc2ccccc21 |  | inconclusive [inhibitor, single point]
46 | CCOc1cc(NC(=O)c2ccco2)c(OCC)cc1NC(=O)COc1ccccc1C |  | active: 4.11 µM

Row | Structure (SMILES) | activity change, negative = growth inhibition | Potency
47 | O=C(c1ccc(-c2ccccc2)cc1)C1CCCN(C(=O)Cn2cncn2)C1 (stereo not drawn) | inconclusive: -41.8% [inhibitor] | 
48 | COC(=O)C[C@H]1C[C@H]2c3cc(NC(=O)Nc4ccc(C(F)(F)F)cc4)ccc3O[C@H]2[C@@H](CO)O1 |  | active: 25.9 µM
49 | Cc1ccccc1N/C(SCc1ccc(Cl)cc1)=C(/C#N)C(=O)NCc1ccco1 |  | inconclusive [inhibitor, partial curve]
50 | Cc1ccc(OCc2cc(C(=O)N3CC4C[C@@H]5CC3C[C@H](C4)C5)no2)cc1C |  | inconclusive [inhibitor, single point]
51 | c1cncc(CNc2ccnc(-c3ccc4c(c3)OCO4)n2)c1 |  | inconclusive [inhibitor, single point]
52 | Cc1ccc(S(=O)(=O)Nc2ccc(Nc3nccn4c(-c5cccc(OC(F)(F)F)c5)cnc34)cc2)cc1 |  | active: 11.6 µM
53 | C[C@@H]1CN([C@@H](C)CO)S(=O)(=O)c2ccc(Br)cc2O[C@H]1CN(C)Cc1ccc(-c2ccccc2)cc1 |  | active: 5.8 µM
54 | c1ccc(CN2CCCC3(CCCN(Cc4nc(COc5ccccc5)no4)C3)C2)cc1 (stereo not drawn) |  | inconclusive [inhibitor, single point]
55 | O=S(=O)(Nc1cccnc1)c1cccc(C(F)(F)F)c1 | inactive: -13% | 
56 | COc1cc(CO)ccc1OCc1nnnn1-c1ccc(C)cc1 |  | inconclusive [inhibitor, single point]
57 | Nc1[nH]c(C(=O)c2ccccc2)c(-c2ccc(F)cc2)c1C(=O)NCCc1c[nH]c2ccccc12 |  | active: 23.1 µM
58 | Cc1c(-n2c(SC(C)C(=O)NC(N)=O)nc3ccccc3c2=O)c(=O)n(-c2ccccc2)n1C (stereo not drawn) | inactive: 4.65% | 
59 | COc1ccc(NC(=O)CSc2nc3cc(OC)c(OC)cc3c3nc(-c4ccccc4)nn23)cc1Cl | inactive: -6.34% | 
60 | COc1ccccc1CNCC(=O)Nc1cc(S(=O)(=O)N2CCOCC2)ccc1Cl |  | active: 16.4 µM
61 | CCc1ccccc1NC(=O)Nc1cccc(F)c1 | inactive: -21% | 
62 | O=C(NCCCN1CCOCC1)c1ccc(Sc2ccc(F)cc2)c([N+](=O)[O-])c1 |  | active: 16.4 µM
63 | CS(=O)(=O)N1CCN(C(=O)c2cc(-c3cccnc3)nc3ccc(Cl)cc23)CC1 |  | inconclusive [inhibitor, single point]
64 | Cc1cccc(Nc2nc(N)c(C#N)c(CC#N)c2C#N)c1 |  | inconclusive [inhibitor, single point]
65 | Cc1cc(C)n(CC(O)CN2c3ccccc3Sc3ccccc32)n1 (stereo not drawn) |  | inconclusive [inhibitor, single point]
66 | Cc1ccc(NC(=O)C2CCN(S(=O)(=O)c3ccc(Cl)c(C(F)(F)F)c3)CC2)nc1 |  | inconclusive [inhibitor, partial curve]
67 | COc1ccc(C2(c3ccc(OC(C)=O)cc3OC(C)=O)CC(c3ccccc3)NC(=S)N2)cc1 (stereo not drawn) |  | inconclusive [inhibitor, single point]
68 | O=C(Nc1ccc2c(c1)nc1n2CCCCC1)c1cc(S(=O)(=O)N2CCOCC2)ccc1Cl |  | active: 14.6 µM
